Results on 83 variants are retold here after the RNAGym collection of RNA variant scans (doi:10.1093/nar/gkz1192).

The source gives no read counts; variants with many changes may rest on few reads.

B1: CPEB3 Ribozyme (parent)
chain: UAACAGGGGGCCACAGCAGAAGCGUUCACGUCGCAGCCCCUGUCAGAUUCUGGUGAAUCUGCGAAUUCUGCUGUAUAUCUC

Variants of B1 are the subject of this series. As to the kind of experiment: self-cleavage, relative activity (ratio to wild type); higher = more cleavage; in vitro, sequencing. In outline: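 Relative activity was defined as the cleaved/total read fraction for a variant divided by the same fraction for the unmutated ribozyme. CPEB3 self-cleaving ribozyme libraries were made by rounds of error-prone PCR, barcoded, and transcribed in vitro with T7 RNA polymerase for 5 hours at 37°C, and cleavage ran through transcription plus a 15 min DNase I step before EDTA. Illumina sequencing of template-switched reverse transcripts gave the reads, and DNA sequencing mapped the barcodes. Averages come from three batches, using variants with at least 5 reads.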
As to G10A A57G U72A, the self-cleavage was determined as 0.1.

Consider G10C U31G A47G U60C A75G, for which the self-cleavage was found to be 0.05.

As for G10A C44U G63A U78C, the self-cleavage came out at 0.05.

For the variant G10A G36A U49C U60C U78C, the self-cleavage is 0.05.

Take G9A C32U A35G U41A A56G U60A U76A: the self-cleavage worked out at 0.04.

Turning to G10U U41C U69A U80C, the self-cleavage was found to be 0.05.

Regarding G9A G36U C38A U69G, the self-cleavage was determined as 0.04.

Consider G10A G46A U66C C71A U72C, for which the self-cleavage was found to be 0.08.

On to G10A U48C U72A, for which the self-cleavage stood at 0.18.

Take G10A A13U U76A U80C: the self-cleavage was determined as 0.1.

Consider G9A U31C A64G U69C U80A, for which the self-cleavage worked out at 0.07.

Regarding C11A A21U A65G U66A, the self-cleavage is 0.22.

With G10A A13G G42A U72A, the self-cleavage was determined as 0.07.

For the variant G10A A18U U25G U43C C44U A64U, the self-cleavage was found to be 0.25.

On to G10A U25C C59A U67C, for which the self-cleavage is 0.06.

In the case of G10C A45G U67C U72C, the self-cleavage stood at 0.09.

G9A C38U U41C U72C U74C A77G: the self-cleavage turned out to be 1.28.

With G9C C40A U51C, the self-cleavage stood at 0.15.

Take G10A A20G U41C U49C A57G A64U: the self-cleavage was determined as 0.05.

In the case of G10A U49C U54C, the self-cleavage stood at 0.18.

As to G10A A35G A64G U69C U72A, the self-cleavage was 0.07.

With G9U A56U U69G, the self-cleavage came out at 0.05.

Turning to G10A U25C U26C U76C, the self-cleavage turned out to be 0.06.

G10A A13U A18U A21G C40A U43A: the self-cleavage was found to be 0.06.

Consider G10U A35G U43C U58C G61A, for which the self-cleavage was found to be 0.06.

Turning to G9A A28G U41A, the self-cleavage was found to be 0.31.

As for G9A G10C A64G, the self-cleavage was found to be 0.48.

Take G9U A21G U66C: the self-cleavage was determined as 0.18.

For G10A U43A U60A, the self-cleavage came out at 0.29.

For the variant G10A A28G U51A A56G U66A U72A U76C, the self-cleavage stood at 0.03.

As for G9C A28U C38A G53A U58G, the self-cleavage was found to be 0.05.

As to G10A A45G U67C U72C U80G, the self-cleavage came out at 0.05.

For the variant G10C A18G A28U A75G, the self-cleavage came out at 0.38.

As to G10C A64G C71A U72A, the self-cleavage came out at 0.05.

G10A U67A U72A A77G: the self-cleavage is 0.06.

As to G10U A18G A45U A56U A65G, the self-cleavage came to 0.04.

Regarding G9A U25C A57G A64G, the self-cleavage was 0.1.

For G10A A18G U80C, the self-cleavage stood at 0.47.

G10A C23U U41C: the self-cleavage was found to be 0.06.

For the variant C11A A13G A21G U41A A47G A57G U66C, the self-cleavage came out at 0.03.

As to G9A A47G A64U, the self-cleavage came out at 0.08.

On to G9A A28G U31A A35U A57G A77U, for which the self-cleavage came out at 0.09.

For G9U A13U U49C U58C U60C, the self-cleavage is 0.06.

As to G10C A20C C59U, the self-cleavage was 0.06.

As for G9A U41A U54C U67C U80A, the self-cleavage came out at 0.05.

Regarding G9U C27U U76A, the self-cleavage was 0.18.

For the variant G9U U49C U58C U69C U78A, the self-cleavage came to 0.05.

As to G10A G46A G53A A57G, the self-cleavage came out at 0.05.

For the variant G9A U26C A47U A56G A57C, the self-cleavage stood at 0.

Regarding C11A A18U A21U C27A G63A, the self-cleavage turned out to be 0.07.

Turning to G10U A13G U49A U78C, the self-cleavage was 0.16.

On to G9A C27A G36A U49C A56G U66C, for which the self-cleavage came to 0.04.

Consider G9A C32U U60C U69C, for which the self-cleavage came to 0.05.

For the variant G9U U51C U69C U72A, the self-cleavage amounted to 0.05.

For the variant G10A U26C C27U A47G, the self-cleavage turned out to be 0.19.

Turning to G9A G10C A18G, the self-cleavage worked out at 0.18.

In the case of G9A U72C U76C, the self-cleavage was found to be 0.41.

As for G10A U48C A56G, the self-cleavage worked out at 0.06.

On to G9A U25C A77G, for which the self-cleavage was 0.42.

Turning to G9A U25A A35G U72C, the self-cleavage stood at 0.94.

On to G9A U43C G63U G73U, for which the self-cleavage is 0.74.

For G10C U54A A64G, the self-cleavage turned out to be 0.15.

G10C U48C A65U: the self-cleavage came out at 0.13.

On to G10A A20G U31A U48C U54C, for which the self-cleavage was 0.15.

With G10A A15G A35G C39U U43C U60C U69A, the self-cleavage was 0.05.

Take G9C A18G A21U U43A A65G: the self-cleavage amounted to 0.04.

For the variant G9U U26C G33A A35C A77G, the self-cleavage came to 0.05.

With G9A C29U A45C U49C U72G, the self-cleavage worked out at 0.14.

Regarding G10A C29A U43C U80C, the self-cleavage is 0.21.

With G9U A45G A47U U67C, the self-cleavage was determined as 0.11.

G10U A13U C17U: the self-cleavage is 0.09.

As to G10A A28G A57G A64G U72G U80C, the self-cleavage was found to be 0.06.

As for G10A A35G U54C U72C, the self-cleavage worked out at 0.63.

Take C11A A15U A35U A45G U67C U69C: the self-cleavage was found to be 0.08.

As for G9A G33A U41A U51A A65G A77G U78A, the self-cleavage was determined as 0.04.

In the case of G10A C29U C44U U54A, the self-cleavage came out at 0.14.

Consider G10A G61U A64U, for which the self-cleavage is 0.06.

C11A A15U U25A U26A U49A U51A U78C: the self-cleavage worked out at 0.04.

Consider G10U A20G A45U A47G A77U, for which the self-cleavage worked out at 0.03.

G10A G16A U49C: the self-cleavage was found to be 0.07.

G10A A28G U60G G63U: the self-cleavage is 0.05.

For the variant G10A A20G U26A U48C A64G U69C U78C, the self-cleavage was 0.03.

As for G10U A15G U66A A77G U80A, the self-cleavage was 0.04.
